Results taken from paper PMC4336329 (PLoS ONE, 2015).
In all, about 310,000 compounds went through this assay and about 2,200 (0.71%) showed an effect of 50% or more. The effect is printed as a negative number. The list shows a part of the results.

biological target: human ether-à-go-go-related gene (hERG) potassium channel (human, UniProt Q12809); experiment: primary screen, population patch clamp on CHO cells stably expressing hERG
Sequence (Q12809 whole entry, looked up): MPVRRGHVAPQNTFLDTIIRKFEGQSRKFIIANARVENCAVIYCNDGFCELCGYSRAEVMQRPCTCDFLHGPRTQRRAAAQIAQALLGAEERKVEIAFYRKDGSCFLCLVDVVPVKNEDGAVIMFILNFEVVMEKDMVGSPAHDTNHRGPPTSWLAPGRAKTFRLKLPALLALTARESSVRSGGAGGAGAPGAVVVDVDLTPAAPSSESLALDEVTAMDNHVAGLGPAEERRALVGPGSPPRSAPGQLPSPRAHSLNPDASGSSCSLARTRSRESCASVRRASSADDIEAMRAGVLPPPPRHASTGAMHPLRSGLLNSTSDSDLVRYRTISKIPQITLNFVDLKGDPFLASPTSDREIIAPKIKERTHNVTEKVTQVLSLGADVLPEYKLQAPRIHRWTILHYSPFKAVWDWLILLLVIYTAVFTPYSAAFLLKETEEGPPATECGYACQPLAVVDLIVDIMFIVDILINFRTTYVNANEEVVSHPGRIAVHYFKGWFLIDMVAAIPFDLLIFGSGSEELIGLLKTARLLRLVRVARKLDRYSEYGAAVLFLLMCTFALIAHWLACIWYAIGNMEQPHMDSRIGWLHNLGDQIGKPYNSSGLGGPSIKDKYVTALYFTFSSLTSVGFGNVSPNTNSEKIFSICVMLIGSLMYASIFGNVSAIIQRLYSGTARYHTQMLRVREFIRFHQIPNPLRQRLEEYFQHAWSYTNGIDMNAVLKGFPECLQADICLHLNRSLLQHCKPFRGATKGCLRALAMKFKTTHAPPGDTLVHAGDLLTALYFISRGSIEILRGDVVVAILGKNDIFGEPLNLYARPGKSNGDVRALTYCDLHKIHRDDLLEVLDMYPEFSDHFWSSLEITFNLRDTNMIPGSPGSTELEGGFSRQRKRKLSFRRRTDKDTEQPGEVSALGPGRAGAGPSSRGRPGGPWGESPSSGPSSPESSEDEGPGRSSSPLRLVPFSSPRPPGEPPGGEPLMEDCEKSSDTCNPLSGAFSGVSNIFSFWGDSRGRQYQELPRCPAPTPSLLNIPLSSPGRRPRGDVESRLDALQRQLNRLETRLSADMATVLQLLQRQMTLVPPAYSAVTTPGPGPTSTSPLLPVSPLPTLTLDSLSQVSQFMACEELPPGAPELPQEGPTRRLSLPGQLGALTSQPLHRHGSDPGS

SMILES	hERG current change (%, negative = inhibition) at 1uM
C[n+]1cccc(/C=N/Nc2nc(Cl)c(C#N)c(Cl)c2Cl)c1.[Cl-]	10.3%
COc1ccc(/C=C(/NC(=O)c2ccccc2)C(=O)NCc2ccco2)cc1	20.7%
O=C1N=c2ccccc2=C1c1sc(Nc2cccc(O)c2)nc1O	12%
CC(C)C1=C2OC(N)=C(C#N)C(C#N)=C2C(C)CC1 (stereo not shown)	6.75%
O=C(c1cc(-c2ccc(F)cc2)no1)N1CCN(Cc2ccc3c(c2)OCO3)CC1	-7.43%
Cc1cc(C)c2c(N)c(C(=O)Nc3ccccc3Br)sc2n1	19.4%
O=C(Cc1ccccc1)NC(NC(=O)Cc1ccccc1)c1cccc([N+](=O)[O-])c1	5.29%
C(=N\n1cnnc1)/c1ccc(OC2CSC2)cc1	2.24%
Cc1cc(Nc2cccc(Cl)n2)n(-c2ccccc2)n1	7.99%
CCOc1ccc(NC(=S)Nc2ccc(OC)cc2)cc1	18.4%
CC(=O)c1cccc(NC(=O)CSc2ccc(-c3ccc4c(c3)OCO4)nn2)c1	5.16%
Cc1ccc(S(=O)(=O)N(C)Cc2ccc(C(=O)N/N=C/c3ccc(OC(F)F)cc3)cc2)cc1	11.4%
O=C(Nc1ccc(F)cc1F)c1cccnc1	12.3%
Cc1ccc(OCC(=O)N2CCN(C(=O)c3cccc(F)c3)CC2)cc1	0.583%
NS(=O)(=O)c1ccc(CCNC(=O)CNCCc2ccc(C(F)(F)F)cc2)cc1.O=C(O)C(=O)O	4%
CC1CCCN(c2ccc(/C=C(\C#N)c3nn(-c4ccccc4)c(N)c3C#N)cc2[N+](=O)[O-])C1 (stereo not shown)	11.1%
CC(=O)OCCN1C(=O)c2cccc3cc([N+](=O)[O-])cc(c23)C1=O	-8.43%
Cc1ccc(C2C3C(=O)N(c4ccccc4)C(=O)C3N3CCCN23)cc1 (stereo not shown)	12.9%
COc1ccc(S(=O)(=O)N(C)CC(=O)NC2CCCC2)cc1OC	15.4%
O=C(/C=C/c1cccc(F)c1)Nc1cc(S(=O)(=O)N2CCOCC2)ccc1N1CCCC1	0.626%
COC(=O)[C@@H]1C[C@@H]2CC[C@@H](O)C[C@@H]2N1Cc1ccccc1OS(=O)(=O)c1ccc(C)cc1	6.43%
Cc1ccc(C)c(NC(=O)CN(C)C(=O)c2ccc3[nH]c4c(c3c2)CC(C)CC4)c1 (stereo not shown)	16.2%
Cc1ccc(-c2cc(C(=O)NCCCN3CCOCC3)no2)cc1	-0.32%
CCN1CCc2c(sc(NC(=O)Nc3ccc(Cl)c(Cl)c3)c2C(N)=O)C1	-2.53%
CCCN(C(=O)c1ccccc1N)c1c(C)n(C)n(-c2ccccc2)c1=O	13.6%
Cc1ccc(OCC(=O)N(Cc2cccc(Cl)c2)C2CCS(=O)(=O)C2)cc1C (stereo not shown)	13%
NC1=C(Br)C(=O)c2ccccc2C1=O	7.58%
O=C(NCCCCCCOC1=NS(=O)(=O)c2ccccc21)C(=O)Nc1ccccc1	16.7%

SMILES	hERG current change (%, negative = inhibition) at 1uM
CC(=O)N1CCN(c2ccc(NC(=O)c3ccccc3Br)cc2Cl)CC1	1.44%
COC(=O)c1cn(Cc2ccc(C(F)(F)F)cc2)cc(F)c1=O	12.7%
C=CCn1c(SCCNC(C)=O)nc2cc(-c3ccccc3)sc2c1=O	15.8%
CC(=O)N1c2ccc(S(=O)(=O)NCC3CCC(C(=O)NC4CCCCC4C)CC3)cc2CC1C (stereo not shown)	13.1%
CC(C)CCn1c(N2CCCC2)nc2c1c(=O)n(C)c(=O)n2C	15.5%
CCCSc1nc2cc(S(=O)(=O)N3CCOCC3)ccc2n1CC	10%
CCOC(=O)c1cn(CC2CC2)c2cc(F)c(F)cc2c1=O	10.3%
CCOc1ccc(-c2nn(-c3ccccc3)cc2/C=C2\SC(=S)N(C3CCS(=O)(=O)C3)C2=O)cc1 (stereo not shown)	9.76%
CCOc1ccc(-n2c(-c3cccs3)nc3ccccc3c2=O)cc1	17.9%
Cc1ccc(CONC(=O)c2ccccc2)cc1	15.5%
O=c1[nH]cc(N2CCCCCC2)c(=O)[nH]1	18.9%
CC(C)NC(=O)CN1CCC(c2ccccc2)C(O)C1 (stereo not shown)	14.8%
CCN(CC)CCN(C(=O)c1ccc(Br)s1)c1nc2cc3c(cc2s1)OCCO3.Cl	10.9%
O=C(/C=C/c1ccc2c(c1)OCO2)c1ccc[nH]1	8.18%
CCCOc1ccc(N2C(=O)CC(N(CCc3ccc(OC)cc3)C(=O)c3ccccc3)C2=O)cc1 (stereo not shown)	13.5%
CCN(CC)CCNS(=O)(=O)c1ccc2c3c(cccc13)C(=O)N2	11.6%
O=C(Cn1cnc2c(nnn2-c2ccccc2)c1=O)NCC1CCCO1 (stereo not shown)	16.8%
COc1ccc(CN(C)CC(=O)Nc2sc3c(c2C#N)CCC3)cc1OC	8.26%
CCc1cccc(CC)c1NC(=O)CN1CC(C)SC1=NC1CCCCC1 (stereo not shown)	15.6%
CCCc1cc(=O)oc2cc(C)cc(OCc3nn[nH]n3)c12	10.4%
Cc1ccc(S(=O)(=O)Oc2ccccc2N2C(=O)C3CC=CCC3C2=O)cc1 (stereo not shown)	6.02%
COc1ccc(C(=O)N2CCN(CCNC(=O)C(=O)Nc3ccc(F)cc3)CC2)cc1OC	-10.8%
CCOC(=O)c1ccccc1NC(=O)COc1coc(CN2CCc3ccccc32)cc1=O	-4.62%
COc1ccc(N2CCN(C(=O)c3cc4cc(Cl)ccc4[nH]3)CC2)cc1	13.1%
CCC(C)(C)NC(=S)Nc1ccccc1C	5.2%
Cc1cc(C)n(CC(=O)N2CCCC(N3CCN(Cc4ccc5c(c4)OCO5)CC3)C2)n1 (stereo not shown)	-5.41%
O=C1OCc2ccc(NC(=O)c3ccccc3C(=O)O)cc21	5.68%
